# Reference: PubChem BioAssay AID493014 (National Center for Advancing Translational Sciences (NCATS), 2011)
# Hit rate of the full screen: of about 340,000 compounds, about 170 (0.05%) were called active. Another 26% or so got no clear call; they are omitted. The call rests on the fitted dose curve; in most records, active means well fitted inhibition curve with a large enough effect in the signal ratio, with a control signal flat (not every such curve was filed as active); inconclusive means small, poorly fitted or top-dose-only effect, or effect the other way, or a change in a side signal; inactive means flat fitted curve, though single readings scatter; the % refers to the signal ratio. This is a selection; strong and weak results do not stand in their true shares.
# Assay: qHTS Assay to Find Inhibitors of Chronic Active B-Cell Receptor Signaling
# Details: ABC-DLBCL IkBa-CBG/CBR reporter, luminescence ratio (green luciferase fused to IkBa over red control in TMD8 lymphoma cells), 4 h; series mostly up to 46.1 µM; activity change, negative = inhibition: at the top concentration
# From the text: NIH Molecular Libraries Probe Production Network [MLPCN] NIH Chemical Genomics Center [NCGC] MLPCN Grant: 1 R03 DA031086-01A1 PI Name: Dr. R. Eric Davis NCGC Assay Overview: Diffuse large B-cell lymphoma (DLBCL) is the most common category of non-Hodgkin lymphoma, with ~20,000 new cases per year in the United States. DLBCL should be regarded as a collection of different neoplasms. Microarray gene expression analysis has defined two principal types of DLBCL, named for their similarity to normal B cell stages or activation states: a germinal center B-cell (GCB) type, and an activated B-cell (ABC) type. In ABC-DLBCL, a constitutive high-level activity of the NF-kappaB family of transcription factors has been observed (1) and NF-kappaB target genes are more highly expressed in ABC primary tumors than in GCB tumors. Functional studies have shown a constitutive high-level activity of the IkappaB (inhibitor of kappa-B) kinase (IKK) complex. […] Further analysis of DLBCL primary tumors for NF-kappaB target gene expression imply that although CARD11 is required for constitutive IKK activity in all ABC-DLBCL lines, mutations in CARD11 may be the root cause of IKK activation only in lines or tumors with such mutations. In other words, CARD11 mutations may explain NF-kappaB activation in only 10% of ABC-DLBCL cases. […] This process has been termed 'chronic active BCR signaling' (CABS). The goal of this screen is to find small-molecule inhibitors of the CABS pathway found in ABC-DLBCL lines using a cell-based assay that measures IkappaBalpa stability, which has already been extensively validated in the OCI-Ly3 line (PubChem AID:445; REF: 4). […] The assay uses green (CBG68) and red (CBR) emitting beetle luciferases [Chroma-GloTM developed by Promega Corp.] where the green luciferase is fused to IkappaBalpha and the red luciferase is present in its native state. Both luciferase genes are stably present in the TMD8 human ABC DLBCL cell line, but their expression is under the control of tetracycline-inducible promoters. Following the addition of doxycycline to induce expression of the luciferases, the green luminescence in control cultures rises only slowly because the CBG fusion partner IkappaBalpha is targeted by IKK activity for rapid degradation. In contrast, green luminescence rises rapidly in the presence of proteasome inhibitors or IKK inhibitors. The rise in red luminescence of CBR is not affected by proteasome or IKK inhibitors, and serves as normalization for cell number and nonspecific effects. Compounds were screened as a concentration-titration series that ranged from 46 uM to 3 nM.
# NCGC Assay Protocol Summary: Cells were seeded in 1536-well plates at 5000 cells/4uL in IMDM medium containing 0.5% FBS, w/o phenol red, 1% penicillin/streptomycin. Then, 23 nL of compounds or DMSO were delivered to each well using a pin tool. One uL 20ng/ml doxycycline was then dispensed into white solid 1536-well plates and the plates were incubated at 37C/5% C02 in a cell incubator for 4 hrs. Then 4 uL luminescent substrate mix (in-house prepared: 150 mM Tris-Cl, pH 7.6, 3 mM MgCl2, 1% Triton X-100, 5 mM DTT, 0.2 mM CoA, 0.15 mM ATP, 5 mM D-luciferin, final concentrations) was added to each well. The plate was incubated at r.t. for 10-15 min. The plates were measured on a ViewLux plate reader for green luminescence (540/20 nm filter) and red luminescence (618/8 nm filter). The green and red luminescent signals were corrected for red and green luminescence filter overlap using previously determined filter calibration constants (determined using the procedure outlined in the Promega Technical Manual; REF 4). The %Activity was determined from the ratio of corrected green/red luminescent values. MG132 were used as control. […] Red luminescent %Activity was normalized to the difference between red luminesence in basal cells (0%Activity) and zero luminescence (-100% Activity). […]
# Potency means the concentration at half of the fitted maximal effect.
Structure (SMILES),"activity change, negative = inhibition",Potency
CC(=O)N1CCC[C@H]1C(=O)O,inactive: 5.68%,
COc1ccc(C2CNC(=O)C2)cc1OC1CCCC1 (stereo not given),,inactive
C#Cc1ccc([C@@H]2C=C(C(=O)N3CCN(Cc4ccc5c(c4)OCO5)CC3)O[C@H](OCC)[C@H]2CCCO)cc1,inactive: -1.64%,
Cc1cc(C)c[n+](-c2nc3ccccc3nc2C(=C=[N-])C#N)c1,inactive: 3.62%,
COc1cc(/C=N/NC(=O)NC2CCCCC2)ccc1O,,active: 12.6 µM
C/C(=N/NC(=O)COc1cc(C)ccc1C(C)C)C(=O)O,,active: 10 µM
COc1cccc(CNC(=O)Cn2ccc3cc(S(=O)(=O)N4CCCC4)ccc32)c1,inactive: 1.36%,
COc1ccccc1N(CC(=O)NCCSCc1ccc(Cl)cc1)S(C)(=O)=O,inactive: 1.46%,
CC[C@]12CCCN3CCc4c(n(c5ccccc45)[C@](O)(C(=O)OC)C1)[C@@H]32,inactive: -13.5%,
O=S1(=O)CC(O)C(Nc2ccc(Cl)cc2)C1 (stereo not given),inactive: 6.58%,
CCN1C(=O)/C(=C2\C=Cc3ccccc3N2CC)SC1=S,inactive: 10.7%,
CN1CCN(CCCN2c3ccccc3Sc3ccc(Cl)cc32)CC1,inactive: -10.1%,
O=C(C[C@H]1C/C=C\CC[C@H](Cc2ccc(F)cc2)C(=O)OC[C@@H]2CCCN2C1=O)N[C@H](CO)Cc1ccccc1,inactive: 1.81%,
S=c1[nH]c2cc3ccccc3cc2[nH]1,inactive: 0.119%,
CC(C(=O)N1CCN(c2ccccc2)CC1)N1C(=O)C2CC=CCC2C1=O (stereo not given),inactive: -8.89%,
Cn1c(SCC(=O)N/N=C/C=C\c2ccco2)nc2ccccc21,inactive: 0.545%,
C=CC[C@H](CC(=O)NCCO)C(=O)N[C@H](COC(=O)[C@H](CC=C)CC(=O)OC(C)(C)C)Cc1c[nH]c2ccccc12,inactive: -1.21%,
O=C1N[C@@H](Cc2ccccc2)COC(=O)[C@@H](Cc2ccc(F)cc2)CC/C=C/C[C@@H]1CC(=O)N(CCO)Cc1ccccc1,inactive: 2.14%,
CCOC(=O)c1cnc(Nc2nc3ccccc3o2)nc1CSC(=S)N(CC)CC,,active: 0.58 µM
C=CC[C@@H](CC(=O)NCCO)C(=O)NCCOC(=O)[C@@H](CC=C)Cc1ccc(F)cc1,inactive: -1.26%,
O=C(O)CCCn1cc(NC(=O)COc2ccccc2F)cn1,inactive: 2.19%,
CC[C@]1(c2ccccc2OC)C(=O)N(C(=O)OC)N1C(=O)OC,inactive: 5.24%,
O=C(NCC(c1ccco1)N1CCc2ccccc21)C(=O)Nc1ccc(F)cc1F (stereo not given),,active: 9.2 µM

Structure (SMILES),"activity change, negative = inhibition",Potency
CCO[C@@H]1OC(C(=O)Nc2ccccc2)=C[C@H](c2ccc(Br)cc2)[C@H]1CCCO,inactive: 6.29%,
NC(=O)C1CCN(c2nc(-c3ccccc3Br)cs2)CC1,inactive: -6.73%,
CCOC(=O)C1=C(C)c2ccccc2N(C(=O)OC)C1(C)C(=O)OCC (stereo not given),,active: 18.4 µM
COc1ccc(NC(=O)/C(=C/c2cccs2)NC(=O)c2ccco2)cc1,inactive: 1.98%,
CCC(CC)C(=O)c1c[nH]c(C(=O)NN)c1,,active: 22.4 µM
O=C(NC1CC1)C1=C[C@@H](C2CCCCC2)C[C@@H](OCCCCO)O1,inactive: -6.16%,
CCOC(=O)[C@@H](CCc1ccccc1)N[C@H](C)C(=O)N1[C@H](C(=O)O)C[C@@H]2CCC[C@@H]21,inactive: 3.86%,
O=C(NC1CC1)C1=C[C@H](c2csc3ccccc23)C[C@H](OCCCCO)O1,inactive: -0.345%,
C[C@H]1CN([C@@H](C)CO)C(=O)c2cccc(NC(=O)C3CC3)c2O[C@H]1CN(C)C(=O)Nc1ccc2c(c1)OCO2,inactive: 1.77%,
O=C1NC[C@H](c2ccccc2)OC(=O)[C@H](Cc2ccc(F)cc2)C/C=C\C[C@H]1CC(=O)N(CCO)Cc1ccccc1,inactive: 4.74%,
CC(C)(C)[C@H]1C=C(C(=O)N2CCN(Cc3ccccc3)CC2)O[C@@H](OCc2ccc(CO)cc2)C1,inactive: 3.65%,
CCCCN(C(=O)Nc1ccc(OCC)cc1)C1CCN(C(C)=O)CC1,inactive: -8.72%,
CCC(C)Sc1ccc([C@@H]2[C@@H]3C(=O)N(CC)C(=O)[C@@H]3[C@]3(C(=O)OC)CCCCN23)cc1 (stereo not given in full),inactive: 1.46%,
O=C1OC[C@H]2CCCN2C(=O)[C@@H](CC(=O)N(CCO)Cc2ccccc2)C/C=C\CC[C@H]1Cc1ccc(F)cc1,inactive: -4.89%,
CC(=O)C[C@@H](O)CC(=O)[C@H]1OC(=O)CCCCCc2ccccc21,inactive: 4.44%,
C[C@@]12C(=O)N(c3ccc(Cl)cc3)C(=O)N1[C@@H]1c3ccccc3OC[C@@H]1[C@H]2c1ccccc1,inactive: -2.28%,
C[C@@H]1COC(=O)[C@H](Cc2ccc(F)cc2)C/C=C\C[C@@H](CC(=O)NCCO)C(=O)N1,inactive: 0.24%,
O=C(C1=C[C@H](c2csc3ccccc23)C[C@H](OCCCCO)O1)N1CCN(Cc2ccc3c(c2)OCO3)CC1,inactive: -2.56%,
CC(C)(C)OC(=O)C[C@@H]1C/C=C\C[C@@H](CC(=O)N[C@H](CO)Cc2ccccc2)C(=O)N2CCC[C@H]2COC1=O,inactive: 1.41%,
COc1ccc2c3c1OC1CC(O)C=CC31CCN(C)C2 (stereo not given),inactive: -1.93%,
CN1C(=S)SC(/[N+]([O-])=C\c2ccc(Cl)cc2)C1(C)C (stereo not given),inactive: 0.399%,
OCC[C@@H]1C[C@H](O)[C@@H](O)[C@]2(CCc3ccccc3CO2)O1,inactive: -18.1%,
